The campaign covered roughly 45,000 compounds. About 200 (0.44%) were called active. Another 7% or so got no clear call; they are omitted. The call rests on the fitted dose curve; in most records, active means well fitted activation curve with a large enough effect; inconclusive means small, poorly fitted or top-dose-only effect; inactive means no such curve, though single readings can be large or run the other way. The list shows a part of the results.
assay: qHTS of TDP-43 Inhibitors: NCGC Sytravon Library Screen; conditions: yeast TDP-43 toxicity rescue, BacTiter-Glo growth, 24 h; series mostly up to 46.1 µM; growth rescue (activation): at the top concentration; further: 0% is about no effect; nearly all actives have a fitted effect of over 55% in size
In short: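 TDP-43-expressing yeast, pregrown in raffinose, seeded at OD600 0.02 in galactose medium with compound for 24 hr at 30 deg C. Growth read by BacTiter-Glo luminescence, so rescue of toxicity appears as activation.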

SMILES | growth rescue (activation)
Cc1cc(=O)oc(C)c1C(=O)N1CCN(C(c2ccccc2)c2ccccc2)CC1 | inactive: -9.34%
CCCCn1c(SCC(=O)c2ccc(O)cc2O)nc2cc(S(N)(=O)=O)ccc21 | inactive: 4.66%
Cc1c(C(=O)N2CCNCC2)oc2ccccc12 | inactive: 14.5%
CC(=O)c1cccc(NC(=O)c2cccc3c(-c4cnn(C)c4)coc23)c1 | inactive: 36%
COC(=O)N/N=C/c1cccc([N+](=O)[O-])c1 | inactive: 17.3%
COc1ccccc1C(CNc1nc(C(F)(F)F)nc2ccccc12)N(C)C (centres undefined) | inactive: 9.17%
Cc1cc(=O)n2[nH]c(C(=O)O)nc2n1 | inactive: -11.5%
CCOc1ccc(S(=O)(=O)Nc2ccc3c(c2)OCO3)cc1 | inactive: 2.84%
CCOC(=O)N1CCC(NC(=O)C2CCN(S(=O)(=O)c3ccc4c(c3)oc(=O)n4C)CC2)CC1 | inactive: 2.32%
O=C(O)c1cccc(Nc2ncnc3c2cnn3-c2ccccc2)c1 | inactive: 34.6%
COc1cc(C)nc2nc(SCc3ccccc3)nn12 | inactive: 42.4%
Cc1ccc(NC(=O)N2CCCC2C(=O)Nc2ccc3c(c2)OCCO3)cc1 (centres undefined) | inactive: -1.27%
O=C(O)c1ccc2nc(-c3cc4cccc(O)c4oc3=O)[nH]c2c1 | inactive: -24.5%
CN1CCN(C(=S)c2ccc([N+](=O)[O-])cc2)CC1 | inactive: 3.28%
CN(C)CCCNC(=S)N1CCN(c2nc(-c3ccccc3)cs2)CC1 | inactive: 1.36%
O=S(=O)(Nc1ccc(O)c(Sc2nc3ccccc3s2)c1)c1ccc(F)cc1 | inactive: 10.1%
C/C(=N/Oc1nc(C)cc(C)n1)c1ccc(F)cc1 | inactive: 9.98%
O=C(COc1ccc(Cl)cc1Cl)N1CCN(C(=O)c2ccco2)CC1 | inactive: 19.9%
CCc1nc2ccc(C(=O)Nc3cccc(OCC(=O)N(C)C)c3)cn2c1N(C)Cc1ccc(OC)cc1 | inactive: -1.94%
CCCC(=O)N1CCN(c2ccc(NC(=O)c3cccs3)cc2Cl)CC1 | inactive: -11.4%
O=C(Cn1cnc2c(oc3nc4c(cc32)CCCC4)c1=O)Nc1cccc(Cl)c1 | inactive: -31%
O=C(CSc1nc2ccccc2c(=O)n1-c1ccc(F)cc1F)Nc1ccc(N2CCOCC2)cc1 | inactive: -12.9%
Cc1ccc(NC(=O)c2cc(N3C(=O)C=CC3=O)ccc2Cl)cc1C | inactive: -94.3%
O=C(O)c1cc(NC(=O)c2ccco2)cc(NC(=O)c2ccco2)c1 | inactive: -19%
CCOc1cc(/C=C/C(=O)c2ccc(OC)c(CN3CCOCC3)c2)cc(Br)c1O | inactive: -3.24%
O=C(NCCN1CCC(Cc2ccccc2)CC1)C1CCN(S(=O)(=O)N2CCC3(CC2)OCCO3)CC1 | inactive: -2.68%

SMILES | growth rescue (activation)
CCOc1ccc2oc(C(=O)OCC(=O)NCC3CCCO3)c(C)c2c1 (centres undefined) | inactive: 24.9%
COc1ccc(CNC(=O)c2sccc2C)cc1 | inactive: 21.4%
C#CCn1ccc(O)c(Cc2c(F)cccc2Cl)c1=O | inactive: 4.71%
Cc1ccc(S(=O)(=O)N2CCOCC2)cc1NC(=O)c1cc2ccccc2oc1=O | inactive: -17.1%
CN(Cc1ccc(F)cc1)C(=O)C(c1ccccc1)c1ccccc1 | inactive: 17.8%
CCN(CCNC(=O)C1CCCN(S(=O)(=O)CC)C1)c1ccccc1 (centres undefined) | inactive: 19.9%
COC(=O)C1CCN(C(=O)Cc2ccccc2OC)CC1 | inactive: -13.7%
CC(C)(C)NC(=O)CN(C(=O)c1snc(C(=O)NC2CCCCC2)c1N)c1ccc(F)cc1 | inactive: -18.1%
O=C1CN(C(=O)COC(=O)/C=C/c2ccc(OC(F)F)cc2)c2ccccc2N1 | inactive: 13.6%
O=C(Nc1nc(-c2cccnc2)cs1)c1ccc([N+](=O)[O-])cc1 | inactive: 8.3%
Cc1nnsc1NC(=O)OCc1ccc(C(C)(C)C)cc1 | inactive: 20.1%
CCOC(=O)c1c(NC(=O)CN2C(=O)NC3(CCC(CC)CC3)C2=O)sc(C)c1-c1ccc(C)cc1 (centres undefined) | inactive: 0.786%
COC(=O)c1ccc(C2/C(=C(\O)c3cccc(OC)c3)C(=O)C(=O)N2CCCN(C)C)cc1 (centres undefined) | inactive: 13.9%
Cc1ccc([N+](=O)[O-])c(OCCN2C(=O)NC(C)(C)C2=O)c1 | inactive: -9.22%
COc1cc(NC(=O)CSc2nnnn2Cc2ccccc2)cc(OC)c1 | inactive: -2.41%
COc1ccc(C2CC(c3ccc(F)cc3)n3nc(NS(C)(=O)=O)nc3N2)cc1 (centres undefined) | inactive: -1.02%
CCOC(=O)C1=C(C)Nc2ncnn2C1c1ccc(N(C)C)cc1 (centres undefined) | inactive: -0.423%
CC(C)c1ccc(C(=O)NCCCN2CCN(CCCNC(=O)c3ccc(C(C)C)cc3)CC2)cc1 | inactive: 9.83%
CCCCn1c(N)c(N(CC)C(=O)c2cc(C)cc(C)c2)c(=O)[nH]c1=O | inactive: -7.55%
CC(O)(c1cccnc1)c1nc(-c2ccc(S(C)(=O)=O)cc2)cs1 (centres undefined) | inactive: 1.56%
O=C(Cc1ccc(Cl)cc1)NC1CC1 | inactive: 7.62%
Cc1ccc(S(=O)(=O)N2CCCC2C(=O)OCc2nc3sc(C)c(C)c3c(=O)[nH]2)cc1 (centres undefined) | inactive: 21.9%
CCN1CCCC1CN(Cc1cc2ccc(C)cc2[nH]c1=O)C(=S)Nc1ccc(OC)cc1 (centres undefined) | inactive: -3.65%
CCN(c1ccccc1)S(=O)(=O)c1ccc(C(=O)NCCc2ccc(S(N)(=O)=O)cc2)cc1 | inactive: 0.665%
Nc1nc(SCc2ccc(Br)cc2)n[nH]1 | inactive: -11.5%
COc1ccc(/C(=C/c2ccc(OC(F)F)c(OC)c2)C(=O)O)cc1OC | inactive: 18.9%

SMILES | growth rescue (activation)
CCNC(=O)C1CCCN(Cc2cc(C(F)(F)F)ccc2Cl)CC1 (centres undefined) | inactive: -13.1%
CCN(CC)S(=O)(=O)c1nnc(NC(=O)COc2ccccc2F)s1 | inactive: 15.2%
O=C(COC(=O)CNS(=O)(=O)c1ccccc1)NC12CC3CC(CC(C3)C1)C2 | inactive: -6.74%
O=C(COc1ccccc1)NNC(=O)c1cc2ccccc2oc1=O | inactive: 16.4%
CCc1cccc(C)c1Nc1c(-c2ccccc2)nc2sccn12 | inactive: 29.8%
COC(=O)[C@@H](NC(=O)N1CCC(C)CC1)C(C)C | inactive: 3.9%
COC(=O)C1CCN(C(=O)Cn2nnc(-c3cccc(F)c3)n2)CC1 | inactive: 7.69%
CCOC(=O)C1(Cc2cccc(OC)c2)CCCN(C(=O)c2cc(C)on2)C1 (centres undefined) | inactive: 10.7%
COc1ccc(-n2nc(C(=O)NCC(=O)NCc3cccc(F)c3)c3ccccc3c2=O)cc1Cl | inactive: 3.59%
CNS(=O)(=O)c1cc(NC(=O)c2cncn2-c2ccccc2)ccc1C | inactive: 6.77%
Cc1c(C(=O)Nc2ccc(C(=O)O)cc2)cnn1C | inactive: 3.89%
Cn1cc(CNCc2cnc3ccccn23)c(-c2ccc(Oc3ccccc3)cc2)n1 | inactive: -7.31%
Cc1ccc(C)n1NC(=O)c1ccccc1[N+](=O)[O-] | inactive: 9.65%
COc1cc(/C=N/Nc2nc(Nc3ccccc3)nc(-n3nc(C)cc3C)n2)cc(OC)c1OC | inactive: 26.9%
Cc1cc(NC(=S)NC(=O)/C=C/c2ccc(S(=O)(=O)N3CCOCC3)cc2)ccc1Br | inactive: -6.09%
CS(=O)(=O)c1ccc(C(=O)Nc2cc(S(C)(=O)=O)ccc2Cl)cc1 | inactive: -3.21%
O=C(CN1C(=O)COc2ccccc21)NCCN1CCOCC1 | inactive: 2.27%
CN(C(=O)COC(=O)c1ccc(Br)c(S(=O)(=O)N2CCOCC2)c1)C1CCCCC1 | inactive: 14.1%
O=C(O)CCCCCNc1ccc2nsnc2c1[N+](=O)[O-] | inactive: 16.3%
COc1ccc(CC(NC(C)=O)C(=O)NC2CCN(C(=O)c3ccc(Cl)cc3)CC2)cc1 (centres undefined) | inactive: 13%
O=C(Nc1ccc(S(=O)(=O)Nc2ncccn2)cc1)C1CC(=O)N(c2ccccc2)C1 (centres undefined) | inactive: 1.12%
COc1ccc(S(=O)(=O)N2CCCCC2)cc1NC(=O)c1ccc([N+](=O)[O-])o1 | inactive: 6.63%
CCOC(=O)c1c(-c2ccc(C)cc2)csc1NC(=O)c1cc2ccccc2oc1=O | inactive: 5.16%
CCOc1cc(CN2CCC(CO)(Cc3cccc(C(F)(F)F)c3)CC2)ccc1OC | inactive: -4.3%
COC(C(=O)Nc1ccc(Cl)cc1C)c1ccccc1 (centres undefined) | inactive: 26.5%
CC1(C(=O)NS(=O)(=O)Cc2ccccc2)CCN1C(=O)CCc1ccccc1 (centres undefined) | inactive: 12%

SMILES | growth rescue (activation)
Cc1ccc(S(=O)(=O)N(C)C)cc1NC(=O)C1Cc2ccccc2CN1C(=O)c1ccco1 (centres undefined) | inactive: -7.23%
Cc1cccc(NS(=O)(=O)c2cc(C(=O)N3CCCC3)ccc2Cl)c1 | inactive: 13.7%
CCN(CC)N=Nc1ccc(S(=O)(=O)Nc2nc(C)cc(C)n2)cc1 | inactive: 3.4%
O=C(CCCN1C(=O)NC2(CCCC2)C1=O)Nc1ccc(F)cc1 | inactive: 4.15%
COc1cc(C(=O)N/N=C/c2ccc(OC)c(CN3CCN(c4ccc(F)cc4)CC3)c2)ccc1O | inactive: -8.09%
CCOc1ccc(/C(O)=C2/C(=O)C(=O)N(c3ncccn3)C2c2ccc(Cl)cc2)cc1 (centres undefined) | inactive: -15.3%
CCN(CC)c1ccc(C=C2C(=O)OC(c3ccccc3)OC2=O)cc1 (centres undefined) | inactive: 5.84%
CCN1CCN(C(=O)c2cc(=O)c3cc(C)ccc3o2)CC1 | inactive: -10.7%
O=C(O)CNC(=S)N(Cc1ccccc1Cl)C1CCCCC1 | inactive: -2.09%
Cc1cccc(OCC(=O)N/N=C/c2sc(=O)n(Cc3cccc(C(=O)O)c3)c2Cl)c1 | inactive: -11.2%
O=C(Nc1nnc([C@@H]2C[C@H](O)[C@@H](CO)O2)s1)Nc1ccc(F)cc1F | inactive: -2.21%
CCCn1c(N)c(N(CCOC)C(=O)c2ccc(Cl)c([N+](=O)[O-])c2)c(=O)[nH]c1=O | inactive: 3.02%
Cc1c(Cl)cccc1NC(=S)NC1CC1 | inactive: 15.3%
C=CCNC(=O)c1cc2c(=O)c3ccccc3oc2nc1C | inactive: 14.8%
COc1ccc(-c2cc(C(F)F)n3ncc(C(=O)N4CCCc5ccccc54)c3n2)cc1 | inactive: 5.3%
CSc1ccc(C(=O)C2CCCN(C(=O)CCc3cnn(C)c3)C2)cc1 (centres undefined) | inactive: 27.5%
O=C(COC(=O)C1CCN(S(=O)(=O)c2cccc3cccnc23)CC1)c1ccccc1 | inactive: 14.4%
COC(=O)C1CN(C(=O)C(C)Oc2ccccc2Cl)c2ccccc2O1 (centres undefined) | inactive: 19.3%
Cc1ccc(NC2=NCC(=O)N2Cc2ccc3c(c2)OCO3)cc1 | inactive: 7.24%
COc1ccc(C(=O)NCC(=O)OCC(=O)N2CC(C)OC(C)C2)cc1OC (centres undefined) | inactive: 12.1%
Cc1cc(Cl)c2ccc(Cl)cc2n1 | inactive: -0.813%
CS(=O)(=O)N1CCCC(C(=O)Nc2ccc(F)cc2F)C1 (centres undefined) | inactive: -9.87%
COc1ccc(NC(=S)N2CCN(C/C=C/c3ccccc3)CC2)cc1 | inactive: -6.46%
CCOc1ncccc1C(=O)OCc1c(Cl)cccc1Cl | inactive: 9.66%
O=C(Oc1ccc(-c2cnc3ccccc3n2)cc1)c1cccc([N+](=O)[O-])c1 | inactive: 18.9%
N#CCCN(/N=C/c1cccnc1)C1=NS(=O)(=O)c2ccccc21 | inactive: -5.55%

— PubChem BioAssay AID1347073 (National Center for Advancing Translational Sciences (NCATS), 2019)
